# Measurements as given in paper PMC4336329 (PLoS ONE, 2015).
# About 14,000 (4.5%) of roughly 310,000 compounds showed an effect of 50% or more. Effects have a minus sign here. This is one part of the list.
# Molecular target: human ether-à-go-go-related gene (hERG) potassium channel (human, UniProt Q12809)
# Assay: primary screen, population patch clamp on CHO cells stably expressing hERG
# 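Also: peak tail current of the secondary pulse compared with the same well before compound.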
# Chain of human ether-à-go-go-related gene (hERG) potassium channel (Q12809 whole entry, looked up): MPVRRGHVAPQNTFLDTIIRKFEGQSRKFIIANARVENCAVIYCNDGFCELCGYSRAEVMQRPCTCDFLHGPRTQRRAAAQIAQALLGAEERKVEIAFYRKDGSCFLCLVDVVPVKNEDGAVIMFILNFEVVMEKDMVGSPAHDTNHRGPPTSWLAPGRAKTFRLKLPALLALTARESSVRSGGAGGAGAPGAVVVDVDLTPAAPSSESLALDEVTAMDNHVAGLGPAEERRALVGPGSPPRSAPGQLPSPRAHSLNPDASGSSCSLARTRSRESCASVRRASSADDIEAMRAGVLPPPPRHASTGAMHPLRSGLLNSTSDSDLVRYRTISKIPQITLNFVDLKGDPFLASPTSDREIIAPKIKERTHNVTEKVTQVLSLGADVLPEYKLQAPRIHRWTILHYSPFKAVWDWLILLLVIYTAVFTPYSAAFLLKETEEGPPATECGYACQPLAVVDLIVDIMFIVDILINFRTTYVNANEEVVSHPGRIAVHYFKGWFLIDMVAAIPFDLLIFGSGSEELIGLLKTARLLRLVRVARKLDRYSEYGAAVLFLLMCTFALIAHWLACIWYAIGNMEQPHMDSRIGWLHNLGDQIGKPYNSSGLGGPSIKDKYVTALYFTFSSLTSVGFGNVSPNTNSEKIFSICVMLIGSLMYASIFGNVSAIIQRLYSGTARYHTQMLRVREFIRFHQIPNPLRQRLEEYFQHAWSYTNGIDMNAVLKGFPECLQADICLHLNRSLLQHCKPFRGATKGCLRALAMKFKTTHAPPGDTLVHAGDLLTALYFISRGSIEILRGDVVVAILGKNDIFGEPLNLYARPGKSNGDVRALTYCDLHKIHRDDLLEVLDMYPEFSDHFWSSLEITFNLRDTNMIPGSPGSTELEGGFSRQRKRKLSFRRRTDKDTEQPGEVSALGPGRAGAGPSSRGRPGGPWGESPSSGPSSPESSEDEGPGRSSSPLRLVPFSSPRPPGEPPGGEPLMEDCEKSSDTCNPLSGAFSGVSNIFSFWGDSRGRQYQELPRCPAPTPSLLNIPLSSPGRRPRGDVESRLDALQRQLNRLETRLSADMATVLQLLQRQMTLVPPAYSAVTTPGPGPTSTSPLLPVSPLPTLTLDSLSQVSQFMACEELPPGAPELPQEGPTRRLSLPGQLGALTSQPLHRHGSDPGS
row,Structure (SMILES),"hERG current change (%, negative = inhibition) at 10uM"
1,Cc1nnc2n(C3CCCCC3)c(=O)c3c4c(sc3n12)COC(C)(C)C4,2.31%
2,COc1cccc(NC(=S)N2CCN(C)CC2)c1,10.8%
3,COC(=O)CSc1nnc2n1C(C)(C)Cc1ccccc1-2,3.46%
4,N#CC(/C(=N/S(=O)(=O)c1cccs1)c1ccccc1)c1nc2ccccc2[nH]1 (centres unmarked),10.6%
5,CN(Cc1ccccc1)C(=O)CN(Cc1ccccc1)S(C)(=O)=O,-4.6%
6,Cn1c(SCC(=O)c2ccc3c(c2)NC(=O)CO3)nc2ccccc21,3.75%
7,COC(=O)c1nnn(-c2nonc2N)c1COc1ccc(C=O)cc1OC,-13.9%
8,CC(=O)Cc1nsc(NC(=O)c2ccc(Cl)cc2Cl)n1,23.7%
9,OCCN1CCN(c2ncnc3c2c(-c2ccccc2)cn3-c2ccc(F)cc2)CC1,-74.3%
10,Cc1nc2ccc(Br)cn2c1C(=O)N/N=C\c1ccc(C(C)C)cc1,21%
11,COCCCn1c(SCC(N)=O)nnc1-c1ccccc1,-0.75%
12,CS(=O)(=O)N(CC(=O)N1CCN(Cc2ccc3c(c2)OCO3)CC1)c1ccc2c(c1)OCO2,-58.9%
13,O=C(NS(=O)(=O)Oc1ccc(F)c(Cl)c1)OC[C@@H]1CCCN2CCCCC12 (some centres unmarked),14.7%
14,CCc1nnc(NS(=O)(=O)c2ccc(N=CC3=C(O)CC(C)(C)CC3=O)cc2)s1,33.3%
15,CC(C)Oc1ccc(C(=O)N2CCN(C(=O)c3ccco3)CC2)cc1,-29.6%
16,O=C(Nc1cccc(C(=O)N2CCOCC2)c1)c1ccccc1Br,11.8%
17,Cc1cc(C)c(C#N)c(N2CCOCC2)n1,5.48%
18,COc1ccc(NC(=O)CSc2n[nH]c(-c3ccccn3)n2)cc1,14.9%
19,CCn1c(SCC(=O)NCCOC)nc2sc3c(c2c1=O)CCCC3,4.73%
20,O=C(CCN1C(=O)/C(=C/c2ccccc2Cl)SC1=S)NC1CCCC1,19.4%
21,Cc1cc(/C=C2\C(=O)NC(=O)N(c3ccc(Cl)cc3)C2=O)c(C)n1C,8.22%
22,O=C(N/N=C/c1ccccn1)c1ccncc1,13.7%

row,Structure (SMILES),"hERG current change (%, negative = inhibition) at 10uM"
1,CC(=C1C(=O)c2ccccc2C1=O)N1CCN(CCN=CC2=C(O)CC(C)(C)CC2=O)CC1,-42.3%
2,CCOC(=O)/C(=N/Nc1ccc(C)cc1)S(=O)(=O)c1ccc(Cl)cc1,-1.52%
3,C#CCOCCOCCOCCNc1nc(N2CCN(C(=O)[C@H](CCC(=O)O)n3cc(C(N)CO)nn3)CC2)nc(N2CCN(C(=O)[C@H](Cc3ccc(O)cc3)n3cc(C(N)CC(C)C)nn3)CC2)n1.Cl (some centres unmarked),19.3%
4,CSc1nc(NC(C)(C)C)nc(N2CCOCC2)n1,-4.03%
5,O=C(O)c1ccccc1-c1ccccc1C(=O)Nc1nccs1,25.4%
6,Nc1oc2ccc(F)cc2c(=O)c1C=O,20.5%
7,CC(=O)NC1C(=O)N(CCN2CCOCC2)c2ccc(Cl)cc21.Cl (centres unmarked),5.61%
8,CCC(=O)Nc1nc2ccccc2n1Cc1ccc(Cl)cc1,9.4%
9,O=C(O)CC1(CC(=O)Nc2cccc(C(=O)O)c2)CCCC1,20.8%
10,Cc1ccc(COc2ccc(C(=O)NN)cc2)cc1,19.6%
11,CCOC(=O)C(=O)NCc1ccc(/C=C2/N=C(C)C(C(=O)OCC)=C2O)o1,-11.3%
12,CC(C)(C)NC(=O)Cn1c(=O)n(CC(=O)NC(C)(C)C)c2ccccc21,15.6%
13,CCOC(=O)C1(Cc2ccc(OC)cc2)CCN(C(=O)CN2CCN(CC)CC2)CC1,-39.3%
14,COc1ccccc1N=C(C)C1=C(O)CSC1=O,11.8%
15,COC(=O)c1nc2n(n1)C(c1cccc(Cl)c1)C1=C(CCCC1=O)N2 (centres unmarked),-2.87%
16,CCCCCC(=O)Nc1cccc(-c2nc3ncccc3o2)c1,-37.8%
17,CC1=C(C(=O)OCC(C)C)C(c2cc3c(cc2Br)OCO3)NC(=O)N1C (centres unmarked),-35.8%
18,COc1ccc(N2C(=O)C3C4C=CC(CC4)C3C2=O)c([N+](=O)[O-])c1 (centres unmarked),-5.27%
19,CCCOC(=O)Nc1ccc(S(=O)(=O)Nn2cnnc2)cc1,4.46%
20,Cc1ccc(C(=O)N2CCN(c3ccc([N+](=O)[O-])c(N4CCOCC4)c3)CC2)cc1,-60%
21,CN(CC(=O)NCCc1ccc(F)cc1)Cc1ccccc1,-2.73%
22,COCCNC(=S)N1CCN(Cc2cccc(OC)c2)CC1,25.4%
